In assay [1] the target is T1, Human PDL1-His (recombinant human PDL1 ECD with C-terminal poly histidine tag, expressed in-house) (human, UniProt Q9NZQ7 in part).
T1 construct: also called h-PDL1-His; h-PDL1-his; not shown: poly histidine tag at the C-terminus
Put plainly: BLI (Octet), hPDL1 ECD, bivalent VHH-Fc. An excerpt:
(§1) A kinetic buffer only well was set as a reference well for subtraction during data processing. Data were fitted with a 1:1 Langmuir model for association and dissociation using Rmax linked global fitting for each antibody-antigen binding.

The target of assay [2] is T2, human PDL1 expressed on CHO cells (human, UniProt Q9NZQ7). In words: cell-based or functional assay.
The target in assay [3] is T2, human PDL1 expressed on CHO cells. In words: cell-based or functional assay. The source holds these as a separate data set.
T2 sequence (Q9NZQ7 19-290 limits assumed): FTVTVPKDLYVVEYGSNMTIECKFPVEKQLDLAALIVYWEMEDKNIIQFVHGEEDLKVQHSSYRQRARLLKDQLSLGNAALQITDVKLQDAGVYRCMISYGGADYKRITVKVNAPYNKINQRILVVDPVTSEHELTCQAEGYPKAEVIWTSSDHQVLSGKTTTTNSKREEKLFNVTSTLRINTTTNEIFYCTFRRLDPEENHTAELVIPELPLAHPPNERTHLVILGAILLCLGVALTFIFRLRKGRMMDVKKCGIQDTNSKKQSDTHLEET
Assay [4] deals with T1, Human PDL1-His (recombinant human PDL1 …). In words: BLI (Octet), recombinant h-PDL1.
From the text: as §1

Assay [5] shares this target. Put plainly: BLI (Octet Red 96), antibody on AHC sensor, 1:1 fit.
From the text: as §1
For orientation: Biolayer interferometry detects binding as a change in optical thickness at a sensor tip.

Assay [6] deals with T3, Cyno PDL1-His (recombinant cynomolgus PDL1 with C-terminal poly histidine tag, Acro Biosystems) (cynomolgus monkey, UniProt G7PSE7 19-238).
T3 construct: also called cynomolgus monkey PDL1
T3 sequence (G7PSE7 entry or part of it limits assumed): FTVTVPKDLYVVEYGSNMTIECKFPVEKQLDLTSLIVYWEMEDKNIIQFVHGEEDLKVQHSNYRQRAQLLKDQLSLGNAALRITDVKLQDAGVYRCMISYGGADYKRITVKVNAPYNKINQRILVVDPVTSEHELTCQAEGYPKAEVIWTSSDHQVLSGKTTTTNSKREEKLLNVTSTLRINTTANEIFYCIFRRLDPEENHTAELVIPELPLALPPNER
The description is as above.
From the text: as §1

Assay [7] deals with T2, human PDL1 expressed on CHO cells. In words: cell-based or functional assay. The source holds these as a separate data set.

Where two headings read alike, the source gives them in different places.

B1: 2F9 VHH-Fc (Fc fusion)
heavy: QVQLVESGGGVVQPGRSLRLSCAASGGPFMSYAMGWFRQAPGKEREFVAAIRWSGISTFYADSVKGRFTISRDNSKNTLYLQMNSLRAEDTAVYYCAAAQTIVTVPENYEFDYWGQGTQVTVSS[letters of human IgG1 Fc not shown]
Usually koff stands for the first-order rate constant of dissociation. For orientation: kon means a measure of how fast the partners come together. In the case of B1, in assay [1], the Kd was 1.44 nM, the koff turned out to be 0.000556 s⁻¹ and the kon worked out at 386000 M⁻¹ s⁻¹.

B2: 1B2 VHH-Fc (Fc fusion)
heavy: QVQLVESGGGVVQPGRSLRLSCAASGGPFMSYAMGWFRQAPGKEREFVAAIRWSGESTFYADSVKGRFTISRDNSKNTLYLQMNSLRAEDTAVYYCAAAQTIVTVPENKEFDYWGQGTQVTVSS[letters of human IgG1 Fc not shown]
For B2, in assay [1], the Kd was determined as 1.59 nM, the koff is 0.000883 s⁻¹ and the kon stood at 555000 M⁻¹ s⁻¹.

B3: 3D5 VHH-Fc (Fc fusion)
heavy: QVQLVESGGGVVQPGRSLRLSCAASGGPFMSYAMGWFRQAPGKEREFVAAIRWSGHSTFYADSVKGRFTISRDNSKNTLYLQMNSLRAEDTAVYYCAAAQTISTVPENYEFDYWGQGTQVTVSS[letters of human IgG1 Fc not shown]
notes: also called 3D5-Fc
In the case of B3, in assay [1], the Kd came to 1.27 nM, the koff amounted to 0.000639 s⁻¹ and the kon came to 502000 M⁻¹ s⁻¹.

B4: 1H2 VHH-Fc (Fc fusion)
heavy: QVQLVESGGGVVQPGRSLRLSCAASGGPFMSYAMGWFRQAPGKEREFVAAIRWSGLSTFYADSVKGRFTISRDNSKNTLYLQMNSLRAEDTAVYYCAAAPTIVTVPENYEFDYWGQGTQVTVSS[letters of human IgG1 Fc not shown]
With B4, in assay [1], the Kd came to 3.16 nM, the koff turned out to be 0.0012 s⁻¹ and the kon was determined as 381000 M⁻¹ s⁻¹.

B5: 5G10 VHH-Fc (Fc fusion)
heavy: QVQLVESGGGVVQPGRSLRLSCAASGGPFMSYAMGWFRQAPGKEREFVAAIRWSGASTFYADSVKGRFTISRDNSKNTLYLQMNSLRAEDTAVYYCAAAQTIVTVPENYEFDYWGQGTQVTVSS[letters of human IgG1 Fc not shown]
Consider B5, for which, in assay [1], the Kd worked out at 9.26 nM, the koff amounted to 0.00195 s⁻¹ and the kon is 211000 M⁻¹ s⁻¹.

B6: Humanized 10A4 GLEF-N2S VHH-Fc (Fc fusion)
heavy: EVQLVESGGGLVQPGGSLRLSCAASGGPFMSYAMGWVRQAPGKGLEFVAAIRWSGISTFYADSVKGRFTISRDNSKNTLYLQMNSLRAEDTAVYYCAAAQTIVTVPENYEYHYWGQGTQVTVSS[letters of human IgG1 Fc not shown]
notes: CDR2 asparagine changed to serine; bivalent VHH-Fc
For the molecule B6, the “EC50; whole cell PDL1/PD1 blocking assay, NFAT luciferase reporter (RLU)” value (“EC50; whole cell PDL1/PD1 blocking assay” for short) in assay [2] came to 0.824 nM. Moreover, the “EC50; whole cell PDL1/PD1 blocking assay” value in assay [3] came to 7.37 nM. For the same molecule, in assay [4], the Kd was 1.42 nM, the koff was found to be 0.000322 s⁻¹ and the kon was determined as 226000 M⁻¹ s⁻¹.

B7: 1F6 VHH-Fc (Fc fusion)
heavy: QVQLVESGGGVVQPGRSLRLSCAASGGPFMSYAMGWFRQAPGKEREFVAAIRWSGKSTFYADSVKGRFTISRDNSKNTLYLQMNSLRAEDTAVYYCAAAQTIVTVPESYEFDYWGQGTQVTVSS[letters of human IgG1 Fc not shown]
With B7, in assay [1], the Kd stood at 1.68 nM, the koff came out at 0.000801 s⁻¹ and the kon amounted to 476000 M⁻¹ s⁻¹.

B8: Humanized 10A4 GLEF-N2S-FDY VHH-Fc (Fc fusion)
heavy: EVQLVESGGGLVQPGGSLRLSCAASGGPFMSYAMGWVRQAPGKGLEFVAAIRWSGISTFYADSVKGRFTISRDNSKNTLYLQMNSLRAEDTAVYYCAAAQTIVTVPENYEFDYWGQGTQVTVSS[letters of human IgG1 Fc not shown]
notes: 10A4-GLEF-N2S with Tyr100Phe and His101Asp (Kabat numbering); bivalent VHH-Fc
Take B8: in assay [4], the Kd was 2.81 nM, the koff came out at 0.00093 s⁻¹ and the kon came out at 331000 M⁻¹ s⁻¹.

B9: 1G12 VHH-Fc (Fc fusion)
heavy: QVQLVESGGGVVQPGRSLRLSCAASGGPFMSYAMGWFRQAPGKEREFVAAIRWSGLSTFYADSVKGRFTISRDNSKNTLYLQMNSLRAEDTAVYYCAAAQTIVTVPENYNFDYWGQGTQVTVSS[letters of human IgG1 Fc not shown]
Take B9: in assay [1], the Kd was 6.91 nM, the off-rate constant (koff) was 0.0014 s⁻¹ and the kon is 203000 M⁻¹ s⁻¹.

B10: 1E4 VHH-Fc (Fc fusion)
heavy: QVQLVESGGGVVQPGRSLRLSCAASGGPFMSYAMGWFRQAPGKEREFVAAIRWNGISTFYADSVKGRFTISRDNSKNTLYLQMNSLRAEDTAVYYCAAAQTIVTVPENYEFDYWGQGTQVTVSS[letters of human IgG1 Fc not shown]
In the case of B10, in assay [1], the Kd was 0.856 nM, the koff is 0.000397 s⁻¹ and the kon came to 463000 M⁻¹ s⁻¹.

B11: 2H4 VHH-Fc (Fc fusion)
heavy: QVQLVESGGGVVQPGRSLRLSCAASGGPFMSYAMGWFRQAPGKEREFVAAIRWNGISTFYADSVKGRFTISRDNSKNTLYLQMNSLRAEDTAVYYCAAAQTIVTVPENYHFDYWGQGTQVTVSS[letters of human IgG1 Fc not shown]
notes: also called 2H4-Fc
Consider B11, for which, in assay [1], the Kd amounted to 0.869 nM, the koff came out at 0.00041 s⁻¹ and the kon amounted to 472000 M⁻¹ s⁻¹.

B12: Humanized 10A4 GLEF-N2T (VHH-Fc) (Fc fusion)
heavy: EVQLVESGGGLVQPGGSLRLSCAASGGPFMSYAMGWVRQAPGKGLEFVAAIRWTGISTFYADSVKGRFTISRDNSKNTLYLQMNSLRAEDTAVYYCAAAQTIVTVPENYEYHYWGQGTQVTVSS[letters of human IgG1 Fc not shown]
With B12, the “EC50; whole cell PDL1/PD1 blocking assay” value in assay [3] worked out at 12.1 nM. In assay [4], the Kd turned out to be 6.83 nM, the koff is 0.0019 s⁻¹ and the kon worked out at 278000 M⁻¹ s⁻¹.

B13: Humanized 10A4 GLEF VHH-Fc (Fc fusion)
heavy: EVQLVESGGGLVQPGGSLRLSCAASGGPFMSYAMGWVRQAPGKGLEFVAAIRWNGISTFYADSVKGRFTISRDNSKNTLYLQMNSLRAEDTAVYYCAAAQTIVTVPENYEYHYWGQGTQVTVSS[letters of human IgG1 Fc not shown]
notes: Humanized on IGHV3-23*04, keeps llama Phe47 (Kabat); bivalent VHH-Fc
Consider B13, for which the “EC50; whole cell PDL1/PD1 blocking assay” value in assay [3] was 8.3 nM. Further, in assay [4], the Kd came out at 1.54 nM, the koff turned out to be 0.00035 s⁻¹ and the kon turned out to be 228000 M⁻¹ s⁻¹.

B14: 5D8 VHH-Fc (Fc fusion)
heavy: QVQLVESGGGVVQPGRSLRLSCAASGGPFMSYAMGWFRQAPGKEREFVAAIRWSGQSTFYADSVKGRFTISRDNSKNTLYLQMNSLRAEDTAVYYCAAAQTIVTVPSNYEFDYWGQGTQVTVSS[letters of human IgG1 Fc not shown]
As for B14, in assay [1], the Kd came out at 7.42 nM, the koff is 0.0019 s⁻¹ and the kon was determined as 257000 M⁻¹ s⁻¹.

B15: 10A4 VHH-Fc (bivalent chimeric anti-PDL1 antibody) (Fc fusion)
heavy: QVKLEESGGGLVMAGGSLRLSCAASGGPFMSYAMGWFRQAPGKEREFVAAIRWNGISTFYADSVKGRFTVSRDNGKNMAFLQMNSLKPEDTAVYYCAAAQTIVTVPENYEYHYWGQGTQVTVSS[letters of human IgG1 Fc not shown]
notes: expressed in ExpiCHO, Protein A purified; also called 10A4-chimera; chimeric 10A4
In the case of B15, the Kd in assay [5] came to 0.934 nM; in assay [6], 0.942 nM; in assay [4] it was 1.49 nM. Further, the koff was determined as 0.000323 s⁻¹ in assay [5], 0.000327 s⁻¹ in assay [6], 7.83e-05 s⁻¹ in assay [1] and 0.000333 s⁻¹ in assay [4]. For the same molecule, the kon was 346000 M⁻¹ s⁻¹ in assay [5], 347000 M⁻¹ s⁻¹ in assay [6], 458000 M⁻¹ s⁻¹ in assay [1] and 224000 M⁻¹ s⁻¹ in assay [4]. The “EC50; whole cell PDL1/PD1 blocking assay” value in assay [7] is 0.242 nM; in assay [3], 3.79 nM.
